Test results as given in PubChem BioAssay AID652104 (National Center for Advancing Translational Sciences (NCATS), 2013).
Among all 410,000 compounds or so, about 7,200 (1.8%) were called active. Inconclusive means that the source gave no clear call. Such entries were picked first, then a sample of the others. The call rests on the fitted dose curve; in most records, active means well fitted activation curve with a large enough effect; inconclusive means small, poorly fitted or top-dose-only effect, or another doubt; inactive means no such curve, though single readings can be large or run the other way. Potencies of inconclusive entries are left out as doubtful fits.

Assay: qHTS of TDP-43 Inhibitors; further: nearly all actives have a fitted effect of over 50% in size; on growth rescue (activation): % of control where 0% means no effect
Conditions: TDP-43 expressing yeast growth rescue, BacTiter-Glo, 24 h; growth rescue (activation): at 46.1 µM (top of the series) unless noted
Procedure, shortened: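 Luminescence from BacTiter-Glo reports growth of TDP-43-expressing yeast after 24 hr at 30 deg C with compound. Cells were raffinose-pregrown to mid-log, then seeded in galactose medium at OD600=0.02.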
Potency means the concentration at half of the fitted maximal effect; tags describe the fitted curve by direction and shape.

Compound	Potency	growth rescue (activation)
COCCCNC(=O)Cn1ncc2ccsc2c1=O	inconclusive [activator, single point]	–
C#CC1(O)CCC2C3CCc4cc(O)cc(C)c4C3CCC21C (configuration not stated)	inconclusive [activator, single point]	–
Cc1c(C)n(CCC(=O)O)c2ccccc12	inconclusive [activator, single point]	–
CC(=O)c1cccc(-c2ccnc3c2CC(C(=O)NC(C)C)O3)c1 (configuration not stated)	inconclusive [activator, full curve]	–
COc1ccc(CCn2nnc3ccccc3c2=O)cc1OC	inconclusive [activator, partial curve]	–
CN(C(=O)CSc1nc2scc(-c3ccccc3)c2c(=O)[nH]1)c1ccccc1	inconclusive [activator, single point]	–
O=C(CN1CCN(c2ccc(O)cc2)CC1)Nc1cc([N+](=O)[O-])ccc1Cl	–	inactive: 21.4%
O=C(c1ccc(F)cc1)N1c2nc(-c3ccco3)nn2C2(CCCCC2)[C@@H]2CCCC[C@@H]21	inconclusive [activator, full curve, poor fit]	–
CS/C(=N\S(=O)(=O)c1cccs1)Nc1ccc(Br)cc1F	inconclusive [activator, single point]	–
Cc1noc(NS(=O)(=O)c2ccc(N3C(=O)c4ccccc4C3=O)cc2)c1C	inconclusive [activator, full curve, poor fit]	–
COC(=O)c1ccc(COc2ccc(CNCc3ccc(Cl)cc3)cc2)cc1	–	inactive: 7.32%
O=[N+]([O-])c1cc(CN2CCCC2)c2cccnc2c1O	inconclusive [activator, single point]	–
CC(C)N(C(=O)CSc1nc2ccc(Cl)cc2[nH]1)c1ccccc1	active: 35.5 µM	–
Cc1ccc2cc(F)c(F)c(F)c2n1	inconclusive [activator, full curve, poor fit]	–
CCOc1cc(C(=O)NCCc2csc3nc(-c4ccc(C)cc4)nn23)cc(OCC)c1OCC	inconclusive [activator, partial curve, poor fit]	–
O=C(O)c1ccc(O)c(O)c1	–	inactive: 11.8%
CCC(C(=O)OCC(=O)Nc1cccc(OC)c1)c1ccccc1 (configuration not stated)	inconclusive [activator, partial curve, poor fit]	–
COc1ccc(C(=O)N/N=C/c2sc3ccccc3c2O)cc1	–	inconclusive: -80.5% [activator]
Cc1c(-c2ccc(Br)cc2)c(=O)oc2ccc(OC(=O)N3CCOCC3)cc12	inconclusive [activator, partial curve]	–
Cc1ccc(C(=O)Nc2ncnc3sc4c(c23)CCCCC4)cc1	inconclusive [activator, partial curve]	–
Cc1cc(NS(=O)(=O)c2cc(Cl)sc2Cl)no1	inconclusive [activator, single point]	–

Compound	Potency	growth rescue (activation)
Cc1cccc(/C=C(\c2nc3ccccc3[nH]2)S(=O)(=O)c2ccccc2)c1	–	inactive: -3.44%
Cc1ccc(C2SCC(=O)N2c2ccccc2)cc1 (configuration not stated)	inconclusive [activator, partial curve]	–
Cc1cc(Br)ccc1OCc1nc(-c2cccnc2)no1	inconclusive [activator, partial curve]	–
CCOc1ccc(-c2cccc(NS(=O)(=O)c3c(C)cc(C)cc3C)c2)nn1	inconclusive [activator, single point]	–
COc1ccccc1CCNC(=O)C(=O)NCC(c1ccc2c(c1)OCO2)N1CCOCC1 (configuration not stated)	–	inactive: -6.42%
COc1ccccc1OCC(=O)NCC(c1ccc(Cl)cc1)N1CCCCC1 (configuration not stated)	inconclusive [activator, single point]	–
O=C(Nc1cccn2ncnc12)c1ccccc1	inconclusive [activator, partial curve]	–
CCn1cc(/C=C/C(=O)Nc2ccn(Cc3c(F)c(F)c(F)c(F)c3F)n2)cn1	inconclusive [activator, full curve]	–
O=C1N[C@H](Cc2ccccc2)COC(=O)[C@@H](Cc2ccc(F)cc2)CC/C=C/C[C@H]1CC(=O)N(CCO)Cc1ccccc1	inconclusive [activator, partial curve]	–
O=C(O)CCSc1ccc([N+](=O)[O-])cc1[N+](=O)[O-]	inconclusive [activator, single point]	–
FC(F)(F)c1ccc2c(c1)NCC1CCCN21 (configuration not stated)	inconclusive [activator, partial curve]	–
O=C(NCc1ccco1)c1ccc(COc2ccccc2Cl)cc1	inconclusive [activator, single point]	–
COc1cc(Cl)c(C)cc1NC(=O)CSc1nnc(-c2ccco2)n1CC(C)C	inconclusive [activator, single point]	–
Nc1nc(Nc2ccccc2F)sc1C(=O)c1ccc(Cl)cc1	inconclusive [activator, single point]	–
CSc1ccc(CN2CCC(N3CC(C)OC(C)C3)CC2)cc1 (configuration not stated)	–	inactive: -9.11%
O=C1c2ccccc2C(=O)N1CCc1csc(-c2cccc(F)c2)n1	inconclusive [activator, single point]	–
CCOC(=S)SCC(=O)N1CCc2cc(OC)ccc2C1C1C(=O)CCCC1=O (configuration not stated)	inconclusive [activator, partial curve]	–
O=C(NC(=S)Nc1cccc2cc(O)ccc12)c1ccccc1Br	inconclusive [activator, single point]	–
CCOC(=O)c1cc([N+](=O)[O-])sc1NC(=O)CC	inconclusive [activator, single point]	–
COc1ccccc1N(C)S(=O)(=O)c1ccc(C(=O)Nc2nccs2)cc1	inconclusive [activator, single point]	–
Cc1ccc(NC(=O)CN(C)C(=O)Cc2ccc3c(c2)CCC3)cc1	inconclusive [activator, partial curve]	–
